We go through 6 molecules from publication PMC12136788.

B1: chr1:165697146:165697147:-_ENSG00000143183_ENST00000464650|hu_hu|FALSE|FALSE (ssRNA)
RNA: GGGAGUUCUACAGUCCGACGAUCUUGCUGGCUGCCAUUUUCACUCUAAUCAUACCCAAAAGGCUUAGAAAUAAUUCAAAACUAGAAAGAGGCCCAAGUAGUAAGGCUACCUAUGGCUCUUGCUACAAAACAGUUGCCAGUCUGCAACAGAGGAUUGAGCAUCA
B2: chr4:52453130:52453131:+_ENSMUSG00000028312_ENSMUST00000117280|mus_mus|FALSE|FALSE (ssRNA)
RNA: GGGAGUUCUACAGUCCGACGAUCUCCUCUGUGCAUAGGACUUGAAUCCUUCGAGAAUGAUUGAUUUAACAUACAUUUUCUAAACUGUCUUGGGUUAGUAAGCCUGUUAGGCAACAAGCUACAAGUCACGUCUGUACUCAGGCGCAACAGAGGAUUGAGCAUCA
B3: chr2:202488911:202488912:-_ENSG00000155755_ENST00000286196|hu_mus|hu_hu_hu_mus_False|1_28 (ssRNA)
RNA: GGGAGUUCUACAGUCCGACGAUCAUUGAAACAUUUUUCAUAAUCUCCAGUAGCAUUUCAGCAUUAUGUAACAAAAGCUCAAUUGUAAAUACAUGUAUCUUAUAAAAAUAAAAAUACAAACACGAGUGGGGAGCGCACAAAUACCAACAGAGGAUUGAGCAUCA
B4: chr2:24647629:24647630:-_ENSMUSG00000036893_ENSMUST00000134775|mus_hu|FALSE|FALSE (ssRNA)
RNA: GGGAGUUCUACAGUCCGACGAUCCCGGCACUUGGGGGAGCCGCAGCGGCAGCUGAAGAGCUUGCCUUUGAUGUCCCAGAAGCGCUCUCCAUAGUCAAACCCGAGCUGCUCGCCGGCCUCGAUCAGGCGGGUGCUGAAGAAGGCCAACAGAGGAUUGAGCAUCA
B5: chr13:110847046:110847047:-_ENSMUSG00000021700_ENSMUST00000167824|mus_mus|FALSE|FALSE (ssRNA)
RNA: GGGAGUUCUACAGUCCGACGAUCUGAGCCACAAAUGACAGGAACAUAGUGACAUUUCCACUACACACACACACACACACACACACACACACACACACACACACAAGCCACAGCAACUCUCAGUUGUCCACAAGGAAGCAAAAACAACAGAGGAUUGAGCAUCA
B6: 33497434_33497554_2936_3pUTR_ENSMUSG00000022811_ENSMUST00000165418|mouse|control|control (ssRNA)
RNA: GGGAGUUCUACAGUCCGACGAUCUUCUUAUCAGCUUGCUAUGAACGCACUGCUCUUAGAACUGUACAGCACUCCAUUUUACAGAGCAACCCCACUCUUGAGUAAUCUGUUCUAAAGUGCCAGUAUUAUUUACACAUUUUUUUUCAACAGAGGAUUGAGCAUCA

The other results are listed elsewhere or left out.

This assay deals with T1, UNK ZnF1-3 (human, UniProt Q9C0B0 31-174).
T1 sequence: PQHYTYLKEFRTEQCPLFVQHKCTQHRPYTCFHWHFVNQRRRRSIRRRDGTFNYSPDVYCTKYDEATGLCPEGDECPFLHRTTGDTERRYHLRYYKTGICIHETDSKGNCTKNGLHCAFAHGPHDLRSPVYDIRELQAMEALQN
Put plainly: nsRBNS (natural sequence RNA bind-n-seq); RBNS binding buffer (assumed for nsRBNS): 25 mM Tris pH 7.5, 150 mM KCl, 3 mM MgCl2, 0.01% Triton X-100, 500 ug/ml BSA, 20 U/ml SUPERase-In, 4 C; UNK is unkempt and MSI1 is Musashi-1; names of the RNAs are library labels; protein concentration not given here; high values mean tight binding.
As for B1, the binding signal stood at 1.19 enrichment R.
B2 gave a binding signal of 0.61 enrichment R.
In turn, B3 registered a binding signal of 1.7 enrichment R.
B4 showed a binding signal of 0.952 enrichment R.
B5 registered a binding signal of 1.52 enrichment R.
The molecule B6 displayed a binding signal of 0.536 enrichment R.
